Experimental findings from the supplement of paper PMC4967469 are described below.

Lines with a small IC50 respond at low doses; a fit beyond the top or the lowest dose is shown as a bound at that dose. For AUC the same curve is integrated over the 256-fold range of doses and scaled to a fraction: 1 means no effect, lower means more sensitive. A top dose marked as inferred is not printed in the source and was worked back from the curve model.

One may read the IC50 as the point on the concentration scale where inhibition reaches its midpoint.

Compound in one assay: CNC(=O)c1ccc(Nc2cc(Nc3ccccc3S(=O)(=O)C(C)C)c3cc[nH]c3n2)nc1 [HG-5-113-01]
Description: Viability of human cancer cell lines after 72 h of drug (GDSC screen). The following applies: top dose 10 µM; top dose inferred. As for the experimental part:
(§1)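 Human cancer cell lines in 384-well plates, medium with 10% serum, drug for 72 h over a 256-fold dose range (nine 2-fold or five 4-fold steps up to the top dose). Adherent lines were fixed and stained with the nucleic acid dye Syto60, suspension lines read with resazurin; signal relative to control wells, capped at 0 and 100%. One two-parameter sigmoid per drug and line, fitted in a mixed model over all curves with the slope shared within a line.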
Consider D-392MG (glioma, adherent), for which the AUC is 0.854 and the IC50 is greater than 10 µM.

On to D-542MG (glioma, adherent), for which the AUC came to 0.864 and the IC50 is greater than 10 µM.

Turning to HCC2998 (large intestine, adherent), the AUC came to 0.835 and the IC50 is 6.3 µM.

Regarding “JURL-MK1 (chronic myeloid leukaemia, suspension)”, the AUC was 0.747 and the IC50 is 3.19 µM.

Regarding “NCI-H1975 (lung adenocarcinoma, adherent)”, the AUC was 0.786 and the IC50 turned out to be 4.99 µM.

Turning to RC-K8 (B-cell lymphoma, suspension), the AUC stood at 0.97 and the IC50 is greater than 10 µM.

In the case of “SHP-77 (small cell lung carcinoma, semi-adherent)”, the AUC amounted to 0.831 and the IC50 came to 5.43 µM.

Consider SNU-C2B (large intestine, adherent), for which the AUC was 0.837 and the IC50 was greater than 10 µM.

As for SW982 (soft tissue, adherent), the AUC worked out at 0.658 and the IC50 was determined as 1.74 µM.

On to TK (B-cell lymphoma, suspension), for which the AUC turned out to be 0.77 and the IC50 stood at 3.48 µM.

With VAL (B-cell lymphoma, suspension), the AUC was found to be 0.789 and the IC50 came out at 4.44 µM.

Compound in the next assay: COc1cc(-c2nn([C@H]3CC[C@H](N4CCN(C(C)=O)CC4)CC3)c3ncnc(N)c23)ccc1NC(=O)c1cc2ccccc2n1C [A-770041]
The description is as above. The following applies: top dose 5.12 µM; top dose inferred. The protocol:
as §1
Regarding BC-3 (B-cell lymphoma, suspension), the AUC was found to be 0.981 and the IC50 was greater than 5.12 µM.

CAL-148 (breast, suspension): the AUC came to 0.989 and the IC50 was greater than 5.12 µM.

EW-12 (Ewing sarcoma, suspension): the AUC stood at 0.976 and the IC50 was greater than 5.12 µM.

As for HCC1599 (breast, suspension), the AUC was 0.969 and the IC50 was greater than 5.12 µM.

For “HCC-33 (small cell lung carcinoma, adherent)”, the AUC stood at 0.988 and the IC50 was greater than 5.12 µM.

As to “HEL (acute myeloid leukaemia, semi-adherent)”, the AUC was 0.966 and the IC50 is greater than 5.12 µM.

Take KP-N-YS (neuroblastoma, adherent): the AUC was 0.782 and the IC50 worked out at 2.47 µM.

In the case of “NCI-H128 (small cell lung carcinoma, suspension)”, the AUC stood at 0.94 and the IC50 was greater than 5.12 µM.

Take “NCI-H748 (small cell lung carcinoma, suspension)”: the AUC worked out at 0.957 and the IC50 is greater than 5.12 µM.

For the cell line “NCI-H1975 (lung adenocarcinoma, adherent)”, the AUC worked out at 0.51 and the IC50 is 0.343 µM.

As to “NCI-H2171 (small cell lung carcinoma, suspension)”, the AUC worked out at 0.99 and the IC50 is greater than 5.12 µM.

With “NCI-H2196 (small cell lung carcinoma, adherent)”, the AUC was 0.973 and the IC50 was greater than 5.12 µM.

As for NK-92MI (lymphoid neoplasm, suspension), the AUC stood at 0.783 and the IC50 stood at 1.99 µM.

Consider SCC-3 (B-cell lymphoma, suspension), for which the AUC is 0.992 and the IC50 is greater than 5.12 µM.

As for “SHP-77 (small cell lung carcinoma, semi-adherent)”, the AUC was found to be 0.862 and the IC50 was found to be 3.65 µM.

Take “SIG-M5 (acute myeloid leukaemia, suspension)”: the AUC stood at 0.871 and the IC50 was 2.9 µM.

Take SNU-C2B (large intestine, adherent): the AUC was 0.821 and the IC50 was found to be 4.29 µM.

For the cell line “SU-DHL-1 (anaplastic large cell lymphoma, suspension)”, the AUC was determined as 0.995 and the IC50 is greater than 5.12 µM.

With SW982 (soft tissue, adherent), the AUC amounted to 0.502 and the IC50 stood at 0.324 µM.

“TALL-1 (T-cell lymphoblastic leukaemia, suspension)”: the AUC was 0.849 and the IC50 was 3.56 µM.

TE-441-T (rhabdomyosarcoma, adherent): the AUC is 0.883 and the IC50 came to 5.1 µM.

Compound in the next assay: Cc1cccc(-c2[nH]c(C(C)(C)C)nc2-c2ccc3nccnc3c2)n1 [SB-525334]
Described as above. The note with it: top dose 20 µM; top dose inferred. The protocol:
as §1
On to BC-3 (B-cell lymphoma, suspension), for which the AUC is 0.983 and the IC50 was greater than 20 µM.

In the case of CAL-148 (breast, suspension), the AUC was determined as 0.947 and the IC50 was greater than 20 µM.

As to D-392MG (glioma, adherent), the AUC worked out at 0.861 and the IC50 is greater than 20 µM.

As for D-542MG (glioma, adherent), the AUC was determined as 0.698 and the IC50 is 5.14 µM.

As for HCC1599 (breast, suspension), the AUC turned out to be 0.971 and the IC50 was greater than 20 µM.

Regarding HCC2998 (large intestine, adherent), the AUC stood at 0.984 and the IC50 was greater than 20 µM.

In the case of “HCC-33 (small cell lung carcinoma, adherent)”, the AUC stood at 0.9 and the IC50 is greater than 20 µM.

For “HEL (acute myeloid leukaemia, semi-adherent)”, the AUC was 0.965 and the IC50 was greater than 20 µM.

On to “JURL-MK1 (chronic myeloid leukaemia, suspension)”, for which the AUC turned out to be 0.957 and the IC50 was greater than 20 µM.

As to KP-N-YS (neuroblastoma, adherent), the AUC was found to be 0.897 and the IC50 was greater than 20 µM.

For NB12 (neuroblastoma, adherent), the AUC is 0.904 and the IC50 was greater than 20 µM.

As to “NCI-H748 (small cell lung carcinoma, suspension)”, the AUC was 0.946 and the IC50 is greater than 20 µM.

Consider “NCI-H1975 (lung adenocarcinoma, adherent)”, for which the AUC stood at 0.95 and the IC50 was greater than 20 µM.

Consider “NCI-H2171 (small cell lung carcinoma, suspension)”, for which the AUC amounted to 0.948 and the IC50 was greater than 20 µM.

On to “NCI-H2196 (small cell lung carcinoma, adherent)”, for which the AUC was determined as 0.848 and the IC50 was determined as 16 µM.

Take “NCI-H2227 (small cell lung carcinoma, semi-adherent)”: the AUC was found to be 0.904 and the IC50 was greater than 20 µM.

For the cell line RC-K8 (B-cell lymphoma, suspension), the AUC stood at 0.972 and the IC50 was greater than 20 µM.

As to SCC-3 (B-cell lymphoma, suspension), the AUC was determined as 0.994 and the IC50 was greater than 20 µM.

Take “SHP-77 (small cell lung carcinoma, semi-adherent)”: the AUC worked out at 0.933 and the IC50 is greater than 20 µM.

“SIG-M5 (acute myeloid leukaemia, suspension)”: the AUC amounted to 0.84 and the IC50 turned out to be 9.09 µM.

For SNU-C2B (large intestine, adherent), the AUC came out at 0.937 and the IC50 was greater than 20 µM.

For the cell line “SU-DHL-1 (anaplastic large cell lymphoma, suspension)”, the AUC came to 0.946 and the IC50 was 18.9 µM.

SW982 (soft tissue, adherent): the AUC amounted to 0.892 and the IC50 is greater than 20 µM.

For the cell line “TALL-1 (T-cell lymphoblastic leukaemia, suspension)”, the AUC was 0.965 and the IC50 is greater than 20 µM.

For TE-441-T (rhabdomyosarcoma, adherent), the AUC is 0.795 and the IC50 amounted to 8.9 µM.

As for TK (B-cell lymphoma, suspension), the AUC was determined as 0.97 and the IC50 is greater than 20 µM.

UACC-812 (breast, adherent): the AUC was found to be 0.985 and the IC50 is greater than 20 µM.
